# In publication PMC4336329 (PLoS ONE, 2015):
# Out of some 310,000 compounds screened, about 14,000 (4.5%) showed an effect of 50% or more. The effect is printed as a negative number. This is one part of the list.
# Target: human ether-à-go-go-related gene (hERG) potassium channel (human, UniProt Q12809)
# Test: primary screen, population patch clamp on CHO cells stably expressing hERG
# 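Further: peak tail current of the secondary pulse compared with the same well before compound.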
# human ether-à-go-go-related gene (hERG) potassium channel, sequence (Q12809 whole entry, looked up): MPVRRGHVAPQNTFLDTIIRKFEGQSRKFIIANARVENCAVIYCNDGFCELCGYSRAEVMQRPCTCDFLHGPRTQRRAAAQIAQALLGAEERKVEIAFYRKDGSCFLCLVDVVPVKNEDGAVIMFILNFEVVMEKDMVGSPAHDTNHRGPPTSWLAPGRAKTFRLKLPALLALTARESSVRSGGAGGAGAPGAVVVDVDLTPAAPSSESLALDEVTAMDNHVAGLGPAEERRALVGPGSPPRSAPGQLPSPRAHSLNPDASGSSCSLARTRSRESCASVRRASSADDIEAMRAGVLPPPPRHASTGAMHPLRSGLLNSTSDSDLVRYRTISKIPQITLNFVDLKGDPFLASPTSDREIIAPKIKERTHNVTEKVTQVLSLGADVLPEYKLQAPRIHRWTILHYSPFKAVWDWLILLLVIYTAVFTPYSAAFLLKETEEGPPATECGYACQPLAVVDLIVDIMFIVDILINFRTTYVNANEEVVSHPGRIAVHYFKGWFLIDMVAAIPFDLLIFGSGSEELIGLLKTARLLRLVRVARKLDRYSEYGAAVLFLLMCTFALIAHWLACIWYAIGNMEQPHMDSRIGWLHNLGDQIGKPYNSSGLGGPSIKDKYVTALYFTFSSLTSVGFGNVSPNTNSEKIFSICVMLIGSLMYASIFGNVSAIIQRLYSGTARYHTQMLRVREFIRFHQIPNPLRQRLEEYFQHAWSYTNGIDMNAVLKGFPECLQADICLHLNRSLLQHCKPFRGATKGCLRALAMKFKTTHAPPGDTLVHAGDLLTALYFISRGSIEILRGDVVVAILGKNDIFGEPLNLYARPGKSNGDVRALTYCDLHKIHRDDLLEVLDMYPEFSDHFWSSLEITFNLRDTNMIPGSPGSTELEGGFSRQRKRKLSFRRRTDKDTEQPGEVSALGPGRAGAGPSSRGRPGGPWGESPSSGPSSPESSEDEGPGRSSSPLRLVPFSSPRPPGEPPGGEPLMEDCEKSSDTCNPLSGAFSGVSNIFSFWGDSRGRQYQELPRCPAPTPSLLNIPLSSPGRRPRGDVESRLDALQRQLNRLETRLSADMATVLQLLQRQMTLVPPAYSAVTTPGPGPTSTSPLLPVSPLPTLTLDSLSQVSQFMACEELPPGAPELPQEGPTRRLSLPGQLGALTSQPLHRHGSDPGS
row,Structure (SMILES),"hERG current change (%, negative = inhibition) at 10uM"
1,COc1cc(C=O)ccc1Oc1nc(Nc2ccc(F)cc2F)nc(N2CCOCC2)n1,3.49%
2,O=C(N/N=C/c1cccc2ccccc12)c1cc(C2CC2)[nH]n1,17.3%
3,CC(C)CC(CC(C)C)=NNC(=O)c1ccc2c(c1)OCO2,14.7%
4,CC(C)(C)C(=O)Nc1ccc(-c2cn3ccsc3n2)cc1,6.38%
5,Cc1nc2c3ccccc3n(CCN3CCCCC3)c2s1.Cl,-28.9%
6,Cc1ccc(C(=O)N/N=C\c2ccc(OC(=O)c3cccs3)cc2)cn1,18.9%
7,O=C(OCC(=O)N1CCN(S(=O)(=O)c2ccc(Cl)cc2)CC1)c1cccc(OC(F)F)c1,-42.6%
8,Cn1nnc(NC(=O)c2ccccc2)n1,-4.23%
9,Cc1ccsc1C(=O)OCC(=O)Nc1cccc(F)c1,-1.53%
10,O=C(Nc1cccc2ccccc12)/C(=C\c1cccc([N+](=O)[O-])c1)NC(=O)c1cccs1,-70.1%
11,COc1ccc(-c2cc(C(=O)Nc3ccc4c(c3)OCO4)no2)cc1OC,-35%
12,CCn1c(=O)n(-c2ccc(Cl)cc2)c(=O)c2c3c(sc21)COC(C)(C)C3,15.6%
13,O=C(CN1C(=O)c2ccccc2C1=O)Nc1ccc(N2CCOCC2)cc1,-0.211%
14,CC(=O)C[C@H]1c2cc(C(F)(F)F)ccc2S(=O)(=O)N1c1ccc(N(C)C)cc1,-23.7%
15,O=C(COC(=O)c1ccc(Br)cc1)Nc1cccnc1Cl,-3.51%
16,CC(=O)c1ccc(OCCCCOc2ccc(C(C)=O)cc2)cc1,21.4%
17,CCN1CCN(c2nc3c(c(=O)[nH]c(=O)n3C)n2Cc2ccccc2)CC1,-27.7%
18,O=C(CSc1nc2ccccc2c(=O)n1-c1ccc(SC(F)F)cc1)Nc1ccc(N2CCOCC2)cc1,18.4%
19,O=C1NC(=O)/C(=C/c2cccc([N+](=O)[O-])c2)N1,19.9%
20,CC(C)C(=O)N1CCN(c2ccccc2NC(=O)c2cccc(Cl)c2)CC1,-69.6%
21,Nc1nnc(SCC(=O)Nc2ccc(F)c(Cl)c2)n1-c1ccccc1,-70.7%
22,CCN1CCN(c2c(C=O)c(Cl)nc3ccc(OC)cc23)CC1,-54.5%

row,Structure (SMILES),"hERG current change (%, negative = inhibition) at 10uM"
1,CC(C)(C)C(=O)NC(=S)Nc1sc2c(c1C(N)=O)CCC2,13.9%
2,COc1ccc(N(CC(=O)N2CCN(c3ccc(F)cc3)CC2)S(=O)(=O)c2c(C)n[nH]c2C)cc1,-69.4%
3,Cl.O=C(/C=C/c1ccccc1)Nc1ccc(N2CCCCC2)cc1,5.7%
4,COc1ccc(C(=O)N/N=c2\oc3ccccc3cc2C(=O)NCc2ccccc2)cc1,-37%
5,O=C(NNC(=O)c1ccccc1-n1cccc1)c1cccc(Cl)c1,-2.08%
6,CCCOc1ccc(-c2nc(=S)[nH][nH]2)cc1,20.1%
7,CCOc1ccc(C(=O)NC(=S)Nc2ccccc2N2CCCCC2)cc1[N+](=O)[O-],11.7%
8,Cc1cccc(-c2csc(NC(=O)c3cnccn3)c2C(=O)OC(C)C)c1,9.98%
9,COc1ccc(CC(=O)OCC(=O)Nc2ncc(Cl)cc2Cl)cc1,-1.19%
10,Cc1ccc(CNC(=O)c2cc3c(=O)n4ccccc4nc3n(Cc3ccco3)c2=N)cc1,-75.5%
11,COc1ccc(CN2CCCCC2C)cc1OC (stereo not shown),-20.1%
12,NC(=O)C1CCN(C(=O)CN2CCN(c3cccc(C(F)(F)F)c3)CC2)CC1,-2.01%
13,O=C(CSc1nc(=O)n2ccccc2n1)NCc1ccc(F)cc1,-0.132%
14,Cn1c(NC(=O)c2ccc(C(C)(C)C)cc2)cc(=O)n(C)c1=O,9.75%
15,Cc1cc(OCC(=O)Nc2ccc(S(=O)(=O)N3CCN(C)CC3)cc2)ccc1Cl,-25.1%
16,COc1ccc(-c2ncc3ccccn23)cc1,-5.24%
17,Cc1c(C2(c3c(C)n(C)n(-c4ccccc4)c3=O)C(=O)Nc3ccc(F)cc32)c(=O)n(-c2ccccc2)n1C,17.5%
18,COc1ccccc1OCCNC(=O)Cc1ccc(Cl)c(Cl)c1,-20.6%
19,COC(=O)c1c(NC(=O)COc2ccc(Cl)cc2Cl)sc2c1CC(C)(C)NC2(C)C,14.4%
20,CCc1nnc(NC(=O)CSc2nnc(-c3ccc(S(=O)(=O)N4CCCC4)cc3)n2CC)s1,8.86%
21,COCCCNCCC(CCC(C)C)c1ccc2c(c1)OCO2.Cl (stereo not shown),-80.2%
22,c1coc(-c2nnc3n2C2(CCCC2)Cc2ccccc2-3)c1,10.2%

row,Structure (SMILES),"hERG current change (%, negative = inhibition) at 10uM"
1,Cc1cccc(C)c1NC(=O)CSc1nnc(C2CCCCC2)o1,0.666%
2,COc1ccc(C(=O)N2CCC(C(=O)N3CCN(c4ccccc4)CC3)CC2)cc1,-48.7%
3,O=C(NNC(=O)C1CCN(Cc2ccc(Cl)c(Cl)c2)CC1)c1cccs1,6.67%
4,CCCCOC(=O)c1ccc(NC(=O)c2ccccc2OC)cc1,-2.15%
5,COc1ccc(CCNC(=O)CNS(=O)(=O)c2ccc(F)c(Cl)c2)cc1OC,5.14%
6,Cc1ccccc1Nc1nc(N)nc(COC(=O)CC2CC3CCC2C3)n1 (stereo not shown),1.44%
7,CC(C)CNC(=O)c1nn(Cc2ccccc2)c(=O)c2ccccc12,-16%
8,CCn1nc(C)c(Br)c1-c1nc(-c2ccc(C)cc2)no1,18.2%
9,c1ccc(Cn2nnnc2C(c2cccnc2)N2CCN(C3CCCCC3)CC2)cc1 (stereo not shown),-24.9%
10,COc1ccc(CN2C(=O)NC(=O)/C(=C/c3ccc([N+](=O)[O-])s3)C2=O)cc1,17.3%
11,Cc1ccc(C(=O)NC(=S)NNC(=O)COc2ccccc2C)cc1,15.3%
12,CCCCc1nc2ccccc2c(NC(=O)CN2CCCC2)c1CCC.O=C(O)C(=O)O,-22.5%
13,O=C1c2ccccc2C(Nc2ccc(S(=O)(=O)N3CCOCC3)cc2)N1c1ccccn1 (stereo not shown),-19.5%
14,CN(CCc1cn[nH]c1)Cc1nc(C(c2ccccc2)c2ccccc2)no1,-38.5%
15,N#CCSc1nc2sccc2c(=O)n1-c1ccccc1,12.5%
16,O=C(CN(c1cccc(Cl)c1)S(=O)(=O)c1ccccc1)NN=C1CCCC1,-9.24%
17,O=C(COC(=O)c1ccc(F)c(S(=O)(=O)N2CCOCC2)c1)Nc1ccc2[nH]c(=O)[nH]c2c1,27.2%
18,COC(=O)c1sc(S(=O)(=O)N2CCC(C)CC2)c(C(=O)OC)c1C,-9.48%
19,CCOc1ccccc1NC(=O)c1ccc(NC(=O)C2CCCO2)cc1 (stereo not shown),3.08%
20,O=C(CN1C(=O)NC2(CCCC2)C1=O)Nc1ccc(F)c(Cl)c1,0.502%
21,CN1CCN(c2nc(-c3cccs3)cc(C(F)(F)F)n2)CC1,-48.8%
22,COCCN1C(=O)N[C@@H](c2cccc(C(F)(F)F)c2)[C@H](C(C)=O)[C@H]1C,4.22%

row,Structure (SMILES),"hERG current change (%, negative = inhibition) at 10uM"
1,CCOC(=O)C1CCCN(C(=O)c2cc3ccc(OC)cc3[nH]2)C1 (stereo not shown),6.4%
2,c1coc(-c2nnc(NC3=NCCC3)o2)c1,8.95%
3,CCN(CC)C(=O)N1c2ccccc2CC(N(CC)CC)c2ccccc21 (stereo not shown),-24.4%
4,Cc1cc(C)c(NC(=O)CN2CCN3CCCC3C2)c(C)c1.O=C(O)/C=C/C(=O)O (stereo not shown),-7.01%
5,Nc1nc(Cl)cc(Nc2ccccc2Cl)n1,11.7%
6,O=C(NCCc1ccccc1)c1ccc(CS(=O)(=O)Cc2ccc(F)cc2)o1,12.8%
7,Cc1ccc(Nc2nc(-c3cccnc3)nc3ccccc23)cc1,-3.36%
8,Cc1cccc(NC(=O)CNC(=O)c2sc3ccccc3c2Cl)n1,-6.1%
9,COc1c(C)cc(C(=O)C2CCCN(C(=O)c3cc(C)nc(C)n3)C2)cc1C (stereo not shown),7.89%
10,COc1ccc(NC(=O)[C@@H]2CC=C[C@@H]3CCN(Cc4ccc(Cl)c(Cl)c4)C(=O)[C@@H]32)cc1,-5.33%
11,CC1=C(C(=O)OC(C)C)C(c2ccc(Cl)cc2)n2c(s/c(=C\c3ccc(OCC(=O)O)cc3)c2=O)=N1 (stereo not shown),21.7%
12,COc1ccc(C(=O)NCc2nnc(SCC(=O)Nc3cc(C)cc(C)c3)o2)cc1OC,-25.5%
13,Cc1nnc(C)c2c(C)n(-c3ccccc3N)c(C)c12,-11.8%
14,CC1CCN(CCCNC(=O)c2coc3nc4ccccc4nc23)CC1,-10.1%
15,CSCCC(NC(=O)c1ccccc1Br)C(=O)NCC(C)(C)N1CCOCC1 (stereo not shown),-13.8%
16,Cc1ccc(-c2nnc(N3CCCCC3)c3ccccc23)cc1,-11.2%
17,CN(Cc1nnc(-c2ccc(F)cc2)o1)c1ccccc1,-6.15%
18,COc1ccc(-n2nc(C(=O)NCC(=O)Nc3cc(OC)ccc3OC)c3ccccc3c2=O)cc1,15.1%
19,COc1ccc(NC(=O)CC2Nc3cccc4cccc(c34)NC2=O)cc1 (stereo not shown),-16%
